Here are results for 92 compounds from PubChem BioAssay AID463173 (ICCB-Longwood Screening Facility, Harvard Medical School, 2010).

About 1,700 (3.3%) of roughly 52,000 compounds were called active. Rule as the data show it: active = survival mostly below about 52% (no sharp cut-off); inactive = mostly above about 56%. The list shows a part of the results.

The subject of the assay is Wild type. In words: growth inhibition of S. aureus wild type versus tarO mutant, primary screen, teichoic acid synthesis inhibitors, RN4220, OD600 (AID 463173). Particulars: S. aureus RN4220 wild type/DeltatarO growth, OD600, 18 h, stronger effect = lower value, screened at 18.75 µg/mL (by protocol).
With `CCn1c(=O)cc(SCC(=O)NCCc2cc(OC)ccc2OC)c2ccccc21`, the survival is inactive: 67%.
In the case of `CN1CC(=Nc2nonc2N)N(C)C1=O` it was inactive: 103%; in that of `CCN(C(=O)c1nn(-c2ccc(OC)c(Cl)c2)c(=O)c2c1c1ccccc1n2C)c1cccc(C(F)(F)F)c1`, inactive: 81%; in that of `O=C(CN1C(=O)COc2ccc(Cl)cc21)Nc1ccc(F)cc1`, inactive: 89%.
With `O=C(OCc1cc(=O)n2nc(-c3cccs3)sc2n1)c1ccc(Cl)cc1`, the survival is inactive: 69%.
In the case of `COc1ccc(-c2nc3ccc(NS(=O)(=O)c4ccc(C)cc4)cc3o2)cc1` it was inactive: 48%; in that of `COC(=O)c1c(SCC(=O)Nc2cc(OC)cc(OC)c2)[nH]c2ccc(C)cc2c1=O`, inactive: 152%; in that of `CCC1=C(c2ccc(C)cc2)S(=O)(=O)N=C1N1CCC(C(=O)Nc2ccccc2F)CC1`, inactive: 79%.
In the case of `Cc1ccc(Cn2c(C(=O)NCc3ccccc3Cl)cc3sccc32)cc1` it was inactive: 108%.
In the case of `Cc1nc2sccn2c(=O)c1S(=O)(=O)Nc1ccc(N2CCOCC2)c(Cl)c1` it was inactive: 93%; in that of `Cc1ccc(NC(=O)Cn2ncn3c(cc4ccccc43)c2=O)cc1F`, inactive: 93%; in that of `CC(NC(=O)c1ccccc1)c1n[nH]c(=S)n1C` (configuration not stated), inactive: 109%.
For `Cc1nc2nc(CNC(=O)OC(C)(C)C)nn2c(C)c1CCC(=O)NCc1ccc(F)cc1`, the survival is inactive: 91%.
`CCC1CCC(C(=O)NC(C(=O)Nc2cccc(OC)c2)C(C)C)CC1` (configuration not stated): the survival was inactive: 71%.
The result for `CCOc1ccc(CNCc2c(C(=O)O)c(C)n(Cc3cccc(OC)c3)c2C)cc1OC` reads inactive: 75%.
The result for `Cc1cccc(NC(=O)CSc2nnc3[nH]c(=O)cc(-c4ccccc4)n23)c1C` reads inactive: 135%; that for `O=C1CCCN1C(=O)CN1CCCCC1`, inactive: 119%; that for `Cc1cc(CN2CCN(c3ccccc3F)CC2)cs1`, inactive: 82%.
In the case of `COC(=O)c1cc2sc(C)cc2n1Cc1cccc(OC)c1` it was active: 0%; in that of `COc1ccc(CNC(=O)CCCN2C(=O)CSc3c2c(C)nn3-c2ccccc2)cc1`, inactive: 71%.
On to `CCOC(=O)c1c(C)[nH]c(C)c1S(=O)(=O)N1CCCC(C(=O)NCc2cccc(C)c2)C1` (configuration not stated), for which the survival was inactive: 72%.
Turning to `Cc1cccn2c(=O)c(C(=O)NCc3ccc(F)cc3)c(O)nc12`, the survival was inactive: 87%.
On to `CCN(CC)CCNC(=O)C1CCN(c2nn3cc(-c4ccc(F)cc4)nc3s2)CC1`, for which the survival was inactive: 71%.
Consider `Cc1ccc2cc(C#N)c(N3CCCN(S(=O)(=O)c4ccccc4)CC3)nc2c1`, for which the survival was inactive: 103%.
The result for `CCOC(=O)c1c(-c2ccc(OC)cc2)oc2ccc(OCc3ccccc3C)cc12` reads inactive: 47%; that for `CCOc1cc(C(=O)Nc2cc3c(cc2N2CCOCC2)n(C)c(=O)n3C)cc(OCC)c1OCC`, inactive: 84%; that for `O=c1cc(-c2ccccc2)nc(SCc2nc(-c3ccccc3Cl)no2)[nH]1`, inactive: 73%.
In the case of `CN(C(=O)Nc1ccccc1)C1CCS(=O)(=O)C1` (configuration not stated) it was inactive: 102%.
In the case of `CNc1ncnc2c1cnn2-c1ccc(C)c(C)c1` it was inactive: 87%.
With `Cc1ccccc1CNC(=O)CCCn1c(=O)c2cccn2c2cccnc21`, the survival is inactive: 113%.
The result for `Cc1cccc(NC(=O)c2ccc(-n3cnc4cccnc43)cc2)c1C` reads inactive: 84%; that for `Cc1ccc(N2CC(NC(=O)c3cccs3)CC2=O)cc1C` (configuration not stated), inactive: 81%.
As to `CC1CCN(c2nc(N3CCCCC3)nc(N3CCCCC3)n2)CC1`, the survival is inactive: 112%.
The result for `Cn1c(C(=O)N2CCc3ccccc32)cc2sccc21` reads inactive: 100%.
In the case of `COc1cccc(N=Nc2c(O)[nH]c(=O)[nH]c2=O)c1` it was inactive: 110%; in that of `Oc1ccccc1-c1nc(/C=C/c2ccccc2Cl)nn1-c1ccccc1`, active: 2%; in that of `COc1cc(NC(=O)c2cccc3c2C(=O)N(C2CCCCC2)C3)cc(OC)c1OC`, inactive: 52%.
`CCc1ccc(C(=O)c2cn(CC(=O)Nc3ccc4c(c3)OCO4)c3ccc(OC)cc3c2=O)cc1`: the survival was inactive: 69%.
Regarding `COc1ccc(-c2noc(=O)n2Cc2ccccc2)cc1`, the survival is inactive: 128%.
In the case of `Cn1c(C(=O)Nc2cccc(C(F)(F)F)c2)cc2c(=O)n3ccccc3nc21` it was inactive: 106%; in that of `COc1ccc(OC)c(CNC(=O)C(C)n2c(C)c3cnn(-c4ccccc4)c(=O)c3c2C)c1` (configuration not stated), inactive: 112%; in that of `CCOc1ccc(NC(=O)C2CCC(CNS(=O)(=O)c3ccc(Br)s3)CC2)cc1` (configuration not stated), inactive: 85%.
In the case of `CCOc1cc(/C=C(\C#N)C(=O)NCC2CCCO2)ccc1O` (configuration not stated) it was inactive: 75%; in that of `Cc1ccccc1OCc1ccc(-c2nc(C#N)c(NCc3cccnc3)o2)o1`, inactive: 61%; in that of `CC1=C(c2ccc(C)c(C)c2)S(=O)(=O)N=C1N1CCC(C(=O)N2CCC(C)CC2)CC1`, inactive: 81%.
In the case of `Cc1cccc(NC(=O)N2CCC3(CC2)Oc2ccccc2C(=O)N3Cc2ccccc2F)c1C`, the survival is inactive: 79%.
The result for `O=C(Cc1ccc(F)cc1)Nc1nnc2n1CCS2` reads inactive: 64%; that for `CCOc1ccc(C(=O)c2oc3ccccc3c2NC(=O)Cc2coc3ccc(CC)cc23)cc1`, inactive: 85%; that for `COc1cccc(C(=O)Nc2c(C(=O)N3CCN(c4ccc(F)cc4)CC3)oc3ccccc23)c1`, inactive: 77%.
In the case of `CCc1ccc(CNC(=O)c2c(C)oc3ncnc(N4CCOCC4)c23)cc1`, the survival was inactive: 133%.
`COc1cc2ccccc2cc1C(=O)Nc1ccc2oc(-c3ccc(F)cc3Cl)nc2c1`: the survival is inactive: 69%.
For the compound `CCc1cccc(-n2c(=O)c3cccnc3n2CC(=O)Nc2ccc(F)c(C)c2)c1`, the survival is inactive: 74%.
In the case of `CC(C)c1ccc(Nc2cc(C(=O)NC3CCCCC3)c3ccccc3n2)cc1` it was inactive: 73%; in that of `CCc1ccc2occ(CC(=O)Nc3ccccc3C(F)(F)F)c2c1`, inactive: 118%.
The result for `[O-]/[N+](Cc1ccccc1F)=N\O` reads inactive: 111%.
As for `CCOc1ccccc1-n1nnc(-c2nsc(NC(=O)c3ccc(C)cc3)n2)c1C`, the survival is inactive: 98%.
The result for `Cc1cc(C)cc(C(=O)Nc2ccccc2N2CCOCC2)c1` reads inactive: 115%.
The result for `CCc1ccccc1OCC(=O)Nc1ccc(S(=O)(=O)Nc2nc(C)cc(C)n2)cc1` reads inactive: 79%; that for `Cc1nc2cc(C(=O)N3CCN(C)CC3)ccc2n1-c1ccccc1`, inactive: 104%.
The result for `O=C(NCCn1ccc2ccccc21)c1ccc(Cl)cc1` reads inactive: 83%.
For the compound `Cc1cccc(N2CCN(CCNC(=O)Nc3ccc(Cl)cc3)CC2)c1C`, the survival is inactive: 87%.
For the compound `COc1ccccc1NC(=O)CSc1nc(-c2ccc(C(C)(C)C)cc2)c(C#N)c(=O)[nH]1`, the survival was inactive: 57%.
As for `COc1ccc(NC(=O)Cn2c(=O)n(Cc3nc(-c4ccccc4)no3)c(=O)c3ccccc32)cc1Cl`, the survival was inactive: 124%.
The result for `COc1ccc(/C=C/C(=O)Nc2nc3n(n2)C(c2ccc(F)cc2)C=C(c2ccccc2)N3)cc1` (configuration not stated) reads inactive: 56%; that for `CCOC(=O)c1c(-c2ccc(C)cc2)csc1NC(=O)c1cc(=O)c2ccc(C)cc2o1`, inactive: 114%; that for `CSc1cccc(Nc2cc(C(=O)NCCCN(C)c3ccccc3)c3ccccc3n2)c1`, inactive: 99%.
As to `COc1cc(C(=O)n2nc(C)c(Sc3ccc(Cl)cc3)c2C)cc(OC)c1OC`, the survival was inactive: 47%.
In the case of `COc1ccc(NC(=O)C2CCCN(S(=O)(=O)c3ccc(Br)s3)C2)cc1` (configuration not stated) it was inactive: 77%.
In the case of `CC(=O)N1CCc2cc(S(=O)(=O)NC(C(=O)Nc3ccc(C)cc3C)C(C)C)ccc21` (configuration not stated) it was inactive: 85%; in that of `COc1cccc(CNC(=O)Cc2c(C(=O)O)c(C)cn2C)c1`, active: 0%.
In the case of `COc1ccc(CC(=O)NCC(c2cccs2)S(=O)(=O)c2ccc(C)cc2)cc1` (configuration not stated) it was inactive: 153%; in that of `CCOC(=O)c1c(NC(=O)c2cc(-c3cccc(OC)c3)on2)sc2c1CCCC2`, inactive: 70%; in that of `CCCCOc1ccccc1CC1C(=O)Nc2ccc(Br)cc21` (configuration not stated), active: 3%.
With `O=C(NCc1cccs1)c1ccc(CSc2nc3cccnc3n2Cc2ccccc2F)cc1`, the survival is inactive: 75%.
Turning to `OCCNc1ncnc2ccc(Br)cc12`, the survival is inactive: 110%.
In the case of `CCc1ccc(NC(=O)Cn2c(=O)n(Cc3ccco3)c(=O)c3oc4ccccc4c32)cc1` it was inactive: 87%.
The result for `CC(C)c1ccc(NC(=O)CN2C(=O)COc3ccc(S(=O)(=O)N4CCCCCC4)cc32)cc1` reads inactive: 109%; that for `COc1ccccc1N1CCN(c2ncnc3onc(-c4cccc(Cl)c4)c23)CC1`, inactive: 74%; that for `O=C(NCc1cccc(Cl)c1)c1ccc2nc(N3CCCCC3)sc2c1`, inactive: 80%.
In the case of `CCOC(=O)c1c(C)n(-c2ccccc2)c2ccc(OC(=O)c3cccc(OC)c3OC)cc12` it was inactive: 57%.
With `Cc1cc(C)c(NC(=O)Cn2cnc3c(oc4ccccc43)c2=O)c(C)c1`, the survival was inactive: 81%.
The result for `O=C(NCCN1CCOCC1)c1cnn2c(C(F)F)cc(-c3ccccc3)nc12` reads inactive: 97%; that for `Cc1oc(-c2ccccc2Cl)nc1CSc1nc2ncccc2[nH]1`, inactive: 77%.
Consider `COc1ccc(S(=O)(=O)Nc2c(C)nc3nc(C)[nH]n3c2=O)cc1`, for which the survival is inactive: 82%.
In the case of `CCN(CC)C(=O)c1ccc(Nc2nnc(-c3ccc(C)c(S(=O)(=O)NC)c3)c3ccccc23)cc1`, the survival is inactive: 79%.
In the case of `CCc1cccc(N2C(=O)CSC23C(=O)Nc2ccccc23)c1` (configuration not stated) it was inactive: 77%; in that of `O=C(CC(NCc1ccccc1)C(=O)O)NC1CCCCC1` (configuration not stated), inactive: 117%.
The result for `CC(C)Oc1ccc(Cc2cnc(=S)[nH]c2N)cc1` reads inactive: 103%.
The result for `CCCN(C(=O)c1cc2c(=O)[nH]c3ccc(C)cc3c2s1)c1ccc(CC)cc1` reads inactive: 63%; that for `CCOc1ccc(CNS(=O)(=O)c2ccc3c(c2)CCCN3C(C)=O)cc1OC`, inactive: 93%.
For the compound `CCOC(=O)N1CCN(Cc2ccccn2)CC1`, the survival was inactive: 101%.
The result for `CCc1nnc2c(N3CCN(c4cc(Cl)ccc4C)CC3)nc3ccccc3n12` reads active: -6%.
